The other results are listed elsewhere or left out.

The subject of the test is PfAP2-HC AP2 domain (GST-tagged). The test is described as follows: gcPBM binding intensity (ln(normalized median fluorescence intensity)); higher = stronger DNA binding. The gist of the method:
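GST-fused DNA-binding domains of P. falciparum, expressed in E. coli, were applied at about 25 μg on average for 1 h to an Agilent 4 × 180k array of primer-extended double-stranded 36-bp intergenic genomic probes and negative controls. Binding intensity is the highest Masliner-normalised natural-log median intensity across replicate spots of either probe orientation, measured with Alexa488 anti-GST antibody and a 488 nm scan.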
Turning to “AAAGGTTTATCTGATACACACATAAGTGATCAGGTT [CACACA_site6233]”, the “gcPBM binding intensity (ln)” value turned out to be 9.67.
Then “TAAATTAAAAAACATAAACTATTGGAAACGCATTGA [CACACA_negctrl_site935]”, with 9.7; and “TATACATATGTATGCACACATACATACCCATATAAT [CACACA_site5842]”, with 9.82; and “CTATATATAAAATATTGTACTTATTTTTATTACATC [XGTACX_site3963]”, with 9.63.
Turning to “TTTTCTCAATTTTGGTGTACTTTTTTCTTAACACAT [XGTACX_site8918]”, the “gcPBM binding intensity (ln)” value turned out to be 9.83.
Turning to “TATTTAAAATATTAAATTTGTAAAGTTCGAGGGAAG [GTGCAC_negctrl_site337]”, the “gcPBM binding intensity (ln)” value stood at 9.53.
Then “ACACAATAAACATTATGTACATATAATGTTCTGTGT [XGTACX_site3381]”, with 9.8; and “AATGATAATCTATTATGTACACATATATTCTTATGT [XGTACX_site4148]”, with 9.94.
The same measure for “TATTTTTATCAATTCACACATAAATATATTTATATG [CACACA_site5547]”: 9.61.
As for “CACAGTGATATAAAAACACACATGAATTAAAATTTC [CACACA_site4999]”, the “gcPBM binding intensity (ln)” value is 9.73.
Then “CATACATACAGACACACACACATATTTATATTTATA [CACACA_site6172]”, with 11.3; and “GTTAATTATTAAATTTGTACTCATATATATTATATA [XGTACX_site6862]”, with 9.72; and “TCCCTTAATTTTGTGTGTACATATAATATATTTTTA [XGTACX_site2789]”, with 10.
With “AAGAACTCATTAATAATGTAATATTTTATAATTTAG [CACACA_negctrl_site321]”, the “gcPBM binding intensity (ln)” value was determined as 9.42.
The same measure for ATAATAAAACTCAAAGTGCATTAGAATAATTGTAAA: 9.69; for “ATTCATAAATATATTTGTACATATTATATATAAATA [XGTACX_site1907]”: 9.5; for “TATACATATTTCTATTGTACATAAACTAAATCTTCA [XGTACX_site28]”: 9.4.
Then ACAATAAATATGTGGTTGCACTTATAATATATTTAT, with 9.62; and “TAATATATAACGTGCACACACACATTTACGTATGAA [CACACA_site1832]”, with 10.
The same measure for “AGCACCCACCAACACACACACACACCCACCCACCCA [CACACA_site8011]”: 11.2.
Take “GATATTATTGCATATTTACACACGTACTAATTTAAA [CACACA_site8231]”: the “gcPBM binding intensity (ln)” value worked out at 9.93.
Then “TACAATTGTAAAGGCGCACACATATATATATATATA [CACACA_site1392]”, with 10.2; and “TTTTTATAATAAAAAAATATAACTATATTAAGCCAC [CACACA_negctrl_site555]”, with 9.47; and AATATATAGGAAAAAGTGCAATAAATGAACAAAATA, with 9.88.
Then “TTTAATAAAATTCTAGTGCAAAAAGGAAAAAACAAA [GTGCAC_site9642]”, with 9.63.
Then “AATTTTGATATATATTGTACGCATTTTTAAATGCCA [XGTACX_site7694]”, with 9.61.
Consider “AAAAGAAATGACAAATTGGATAGATAATAGGGGGTA [GTGCAC_negctrl_site262]”, for which the “gcPBM binding intensity (ln)” value amounted to 9.77.
Then “GAAGTTTTTTAAAGATGTACTTTTTAAAAATAATGT [XGTACX_site1975]”, with 9.17; and “TTCTTAATTTAAAATTGTACTTAAGTAATACTTATG [XGTACX_site3928]”, with 9.46; and “TTATTTACTTATTGCACACATATAAAATATATTTAT [CACACA_site3101]”, with 9.8.
As to “AAAAAAAAAAAAAATACACACATATATAAATAAATA [CACACA_site6459]”, the “gcPBM binding intensity (ln)” value turned out to be 9.8.
Then “GGAATAGTGATATATACACACAAATACATATTTATA [CACACA_site6183]”, with 9.9; and “AATTAATAAGAAAGGTGTACAGAAAAAAAAAAATAT [XGTACX_site2106]”, with 9.78.
The same measure for “TTTTTCTAATTATGCACACATATCAAAATATTCAAT [CACACA_site2749]”: 9.7; for “GCTCAATTTTTGGGTACACACAAATGTATAAGAATA [CACACA_site7178]”: 9.58; for “ATATATATAGAAATATGTACGAAAAAAATATCACAT [XGTACX_site746]”: 9.85.
Then “TATTTATTTTATATATGTACATAATATATTCTTATA [XGTACX_site1619]”, with 9.75; and “TATATATATATATATGTGCACTGAAAGAATTATACA [GTGCAC_site9586]”, with 9.76; and “AATAAGCTCACGTGTCGTACATTTTTTAAAACAACC [XGTACX_site4707]”, with 9.78.
In the case of “TCAAAAAAAAAAAAAAAAAAAAAAAAAAAAAAAAAA [CACACA_negctrl_site1753]”, the “gcPBM binding intensity (ln)” value is 8.78.
The same measure for “AAAATCAAAAAAACAAGTACAAATGTGGACTTTTTT [XGTACX_site5363]”: 9.64; for “TGTTCTATGGTTTGTAGTACTTTAATAAATATAAAT [XGTACX_site7823]”: 9.65; for “TGACCTGTTCAGGTAACACACATATAAACCCATACA [CACACA_site31]”: 9.98.
The same measure for “ATGCTATAGGATCTTACACACATTTTTGTAAAAAAA [CACACA_site1868]”: 9.68.

Source of the values: the supplement of paper PMC11417369.
